Out of some 200,000 compounds screened, about 860 (0.43%) were called active. Inconclusive means that the source gave no clear call. Such entries were picked first, then a sample of the others. Calls come from the whole dose curve; as a rule, active = well fitted inhibition curve with a large enough effect; inconclusive = small, poorly fitted or top-dose-only effect; inactive = flat fitted curve, though single readings scatter. Potencies beside an inconclusive call are fits to weak or partial responses and may not hold up.
Molecular target: Cruzipain (Trypanosoma cruzi) (UniProt P25779)
Test: qHTS Assay for Promiscuous and Specific Inhibitors of Cruzain (with detergent); note: nearly all actives have a fitted effect of over 40% in size;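 for max response, negative = inhibition: plate controls were neutral wells for no effect and buffer without enzyme for full effect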
Details: purified cruzain, Z-FR-AMC fluorescence, 0.01% Triton
Outline: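 15 min RT preincubation of 1.5 nM cruzain with compound, then 2 uM Z-FR-AMC added; kinetic AMC fluorescence, 60 s delta. Triton X-100 0.01%, pH 5.5.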
Potency is the fitted concentration of half-maximal effect; tags give direction and shape of the fitted curve.

Sequence of UniProt P25779 (P25779 whole entry, looked up): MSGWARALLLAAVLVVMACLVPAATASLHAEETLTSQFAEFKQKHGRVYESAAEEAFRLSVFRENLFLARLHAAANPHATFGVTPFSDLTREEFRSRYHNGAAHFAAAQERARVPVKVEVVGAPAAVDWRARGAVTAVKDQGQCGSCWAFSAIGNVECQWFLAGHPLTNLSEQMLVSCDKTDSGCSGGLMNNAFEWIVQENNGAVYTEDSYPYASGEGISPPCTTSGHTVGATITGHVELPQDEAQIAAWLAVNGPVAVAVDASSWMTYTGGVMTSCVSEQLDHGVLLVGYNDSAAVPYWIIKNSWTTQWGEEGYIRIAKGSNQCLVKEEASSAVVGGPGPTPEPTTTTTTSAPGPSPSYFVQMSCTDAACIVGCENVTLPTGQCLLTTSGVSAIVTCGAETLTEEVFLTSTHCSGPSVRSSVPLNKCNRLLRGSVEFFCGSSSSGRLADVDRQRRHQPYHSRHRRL

Which max response, negative = inhibition does the source give for COc1cc(C(=O)NCc2ccc3c(c2)CCN3C(=O)c2ccncc2)cc(OC)c1OC here?
Its max response, negative = inhibition is inactive: -0.0554%.

For O=C(NCc1ccco1)c1sc2ccccc2c1Cl, which Potency is on record?
The Potency was inconclusive: 35.5 µM [inhibitor, single point].

Which max response, negative = inhibition does the source give for CN1CCN(c2ncncc2-c2cccnc2)CC1 here?
Its max response, negative = inhibition is inactive: 0.562%.

How did the max response, negative = inhibition turn out when O=C1CN=C(c2ccccc2)c2cc(Cl)ccc2N1Cc1ccc(Cl)cc1 was run?
Its max response, negative = inhibition is inactive: -1.37%.

Which Potency does the source give for Cn1c(=O)c2ncn(CC(=O)Nc3ccc4c5c(cccc35)CC4)c2n(C)c1=O here?
The Potency was active: 12.6 µM.

Cc1csc(/N=C/c2ccc([N+](=O)[O-])cc2)n1 was tested. Which max response, negative = inhibition did it give?
The max response, negative = inhibition was inactive: 0.553%.

For Cc1ccc(SCc2[nH]nc3c2C(c2ccc(C)o2)C(C#N)=C(N)O3)cc1 (stereo not given), which Potency is on record?
Its Potency is inconclusive: 25.1 µM [inhibitor, single point].

With Cc1cc(Cl)ccc1OCCCC(=O)NCc1cccs1 as the molecule, how does the max response, negative = inhibition read?
The max response, negative = inhibition was inactive: -7.2%.

For S=C(NC1CCCCC1)N(CCc1nc2ccccc2[nH]1)C1CCCC1, which Potency is on record?
Its Potency is active: 12.6 µM.

Which Potency does the source give for O=C(NC(=S)NNS(=O)(=O)c1ccccc1)c1ccc([N+](=O)[O-])cc1 here?
Its Potency is inconclusive: 15.8 µM [inhibitor, partial curve].

How did the max response, negative = inhibition turn out when O=[N+]([O-])c1ccc2c(c1)C(N1CCOCC1)/C(=C/COc1ccc3ccccc3c1Br)O2 (stereo not given) was run?
The max response, negative = inhibition was inactive: -3.85%.

How did the Potency turn out when CCOC(=O)CC(NC(=O)c1cc2c(=O)n3cccc(C)c3nc2s1)c1ccc(OCC(C)C)c(OC)c1 (stereo not given) was run?
The Potency was inconclusive: 35.5 µM [inhibitor, single point].

For Cc1ccc(S(=O)(=O)/C(=C/Cl)NC(=O)c2ccccc2)cc1, which Potency is on record?
The Potency was active: 22.4 µM.

With CCCCN1CN(S(=O)(=O)c2cccs2)c2nc3ccccc3nc21 as the molecule, how does the Potency read?
Its Potency is inconclusive: 31.6 µM [inhibitor, single point].

COc1ccc(/C=C/c2nc(C#N)c(N3CCC(C(N)=O)CC3)o2)cc1OC was tested. Which Potency did it give?
The Potency was inconclusive: 28.2 µM [inhibitor, single point].

Which Potency does the source give for COC(=O)c1c(C)c(C)nc(N)c1C#N here?
Its Potency is inconclusive: 25.1 µM [inhibitor, single point].

For COc1ccc(S(=O)(=O)Nc2ccccc2C(=O)NCc2ccco2)cc1, which Potency is on record?
The Potency was inconclusive: 39.8 µM [inhibitor, single point].

With COc1ccccc1N1CCN(C(=O)c2ccc3nc(-c4ccco4)c(-c4ccco4)nc3c2)CC1 as the molecule, how does the Potency read?
Its Potency is active: 12.6 µM.

With CCOC(=O)C1=C(C)N=c2s/c(=C\c3ccc(OCC(=O)O)cc3)c(=O)n2C1c1ccc(OC(C)C)cc1 (stereo not given) as the molecule, how does the Potency read?
Its Potency is inconclusive: 28.2 µM [inhibitor, single point].

O=C(COc1ccc(F)cc1)NCCc1nc2ccccc2[nH]1 was tested. Which Potency did it give?
The Potency was active: 1.58 µM.

Reference: PubChem BioAssay AID1478 (National Center for Advancing Translational Sciences (NCATS), 2009)
